# The list shows a part of the results. Sequences were assembled here from the parent chain. Values near 0.05 are background.
# B1: TEV protease; numbered along this chain (parent)
# chain: MGESLFKGPRDYNPISSSICHLTNESDGHTTSLYGIGFGPFIITNKHLFRRNNGTLVVQSLHGVFKVKDTTTLQQHLVDGRDMIIIRMPKDFPPFPQKLKFREPQREERICLVTTNFQTKSMSSMVSDTSCTFPSGDGIFWKHWIQTKDGQCGSPLVSTRDGFIVGIHSASNFTNTNNYFTSVPKNFMELLTNQEAQQWVSGWRLNADSVLWGGHKVFMVKPEEPFQPVKEATQL
# Variants of: B1
# Experiment: raw area under fraction-flipped curve 0-4 h after induction (AUC4h, not background-subtracted), DNA-recorder readout of cleavage of the substrate (dimensionless); higher = more cleavage of the substrate by the protease variant
# Details: temperature: 34 °C; time window: 0-4 h after rhamnose induction
# Protocol: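 In vivo DNA recorder in E. coli TOP10(DE3) ΔrhaA at 34 °C. Each TEVp single-site mutant (parent TEVp 0) is paired with a single-site variant of the 7-mer TEVs (canonical ENLYFQ|S). The substrate sits between flexible linkers in a Bxb1-sfGFP-TEVs-SsrA fusion, so cleavage stabilises Bxb1 and speeds flipping of a recombination array, read by NGS. The value is the raw area under the fraction-flipped curve over 0-4 h after rhamnose induction (AUC4h), with ≥20 reads per time point. It is not background-subtracted; inactive controls average about 0.047.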
# 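Also: Bxb1 expression induced with 0.2% (w/v) L-rhamnose at OD600 near 0.5, cultures sampled hourly, flipped fraction per protease–substrate barcode pair counted by paired-end Illumina sequencing.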
Variant,area with substrate ECLYFQS,area with substrate EELYFQS,area with substrate EILYFQS,area with substrate EKLYFQS,area with substrate EMLYFQS,area with substrate EQLYFQS,area with substrate ERLYFQS,area with substrate ETLYFQS,area with substrate EVLYFQS,area with substrate EDLYFQS,area with substrate EFLYFQS,area with substrate EGLYFQS,area with substrate EHLYFQS,area with substrate ELLYFQS,area with substrate EPLYFQS,area with substrate ESLYFQS,area with substrate EWLYFQS,area with substrate EYLYFQS
MGESLFKGPRDYNPISSSICHLTMESDGHTTSLYGIGFGPFIITNKHLFRRNNGTLVVQSLHGVFKVKDTTTLQQHLVDGRDMIIIRMPKDFPPFPQKLKFREPQREERICLVTTNFQTKSMSSMVSDTSCTFPSGDGIFWKHWIQTKDGQCGSPLVSTRDGFIVGIHSASNFTNTNNYFTSVPKNFMELLTNQEAQQWVSGWRLNADSVLWGGHKVFMVKPEEPFQPVKEATQL [N24M],0.116,0.116,0.0851,0.0858,0.0969,0.1,0.0979,0.098,0.0778,,,,,,,,,
MGESLFKGPRDYNPISSSICRLTNESDGHTTSLYGIGFGPFIITNKHLFRRNNGTLVVQSLHGVFKVKDTTTLQQHLVDGRDMIIIRMPKDFPPFPQKLKFREPQREERICLVTTNFQTKSMSSMVSDTSCTFPSGDGIFWKHWIQTKDGQCGSPLVSTRDGFIVGIHSASNFTNTNNYFTSVPKNFMELLTNQEAQQWVSGWRLNADSVLWGGHKVFMVKPEEPFQPVKEATQL [H21R],0.0621,0.143,0.103,0.104,0.119,0.106,0.109,,0.0855,0.108,0.105,0.0903,0.0899,0.101,0.129,0.101,0.0829,
MGESLFKGPRDYNPISSSICLLTNESDGHTTSLYGIGFGPFIITNKHLFRRNNGTLVVQSLHGVFKVKDTTTLQQHLVDGRDMIIIRMPKDFPPFPQKLKFREPQREERICLVTTNFQTKSMSSMVSDTSCTFPSGDGIFWKHWIQTKDGQCGSPLVSTRDGFIVGIHSASNFTNTNNYFTSVPKNFMELLTNQEAQQWVSGWRLNADSVLWGGHKVFMVKPEEPFQPVKEATQL [H21L],0.0907,0.107,0.0943,0.0989,,0.0858,0.0912,0.103,0.0996,,0.092,0.0799,0.0693,0.0761,0.117,0.0984,0.0956,0.0791
MGESLFKGPRDYNPISSSIPHLTNESDGHTTSLYGIGFGPFIITNKHLFRRNNGTLVVQSLHGVFKVKDTTTLQQHLVDGRDMIIIRMPKDFPPFPQKLKFREPQREERICLVTTNFQTKSMSSMVSDTSCTFPSGDGIFWKHWIQTKDGQCGSPLVSTRDGFIVGIHSASNFTNTNNYFTSVPKNFMELLTNQEAQQWVSGWRLNADSVLWGGHKVFMVKPEEPFQPVKEATQL [C20P],0.0663,0.0626,0.0615,0.0484,,0.0614,0.0642,0.0534,,0.0596,0.119,0.051,0.0757,0.0599,0.0653,0.063,0.0572,0.0389
MGESLFKGPRDYNPISSWICHLTNESDGHTTSLYGIGFGPFIITNKHLFRRNNGTLVVQSLHGVFKVKDTTTLQQHLVDGRDMIIIRMPKDFPPFPQKLKFREPQREERICLVTTNFQTKSMSSMVSDTSCTFPSGDGIFWKHWIQTKDGQCGSPLVSTRDGFIVGIHSASNFTNTNNYFTSVPKNFMELLTNQEAQQWVSGWRLNADSVLWGGHKVFMVKPEEPFQPVKEATQL [S18W],0.0825,0.0962,0.0899,0.0881,0.0575,0.0996,0.0877,0.0921,0.0829,0.107,0.0892,,0.0929,0.0681,,0.077,0.0625,0.0638
MGESLFKGPRDYNPISSEICHLTNESDGHTTSLYGIGFGPFIITNKHLFRRNNGTLVVQSLHGVFKVKDTTTLQQHLVDGRDMIIIRMPKDFPPFPQKLKFREPQREERICLVTTNFQTKSMSSMVSDTSCTFPSGDGIFWKHWIQTKDGQCGSPLVSTRDGFIVGIHSASNFTNTNNYFTSVPKNFMELLTNQEAQQWVSGWRLNADSVLWGGHKVFMVKPEEPFQPVKEATQL [S18E],0.0998,,0.0849,,0.136,0.0998,,0.146,0.0923,0.126,,0.0953,0.107,,0.137,0.103,0.0861,
MGESLFKGPRDYNPHSSSICHLTNESDGHTTSLYGIGFGPFIITNKHLFRRNNGTLVVQSLHGVFKVKDTTTLQQHLVDGRDMIIIRMPKDFPPFPQKLKFREPQREERICLVTTNFQTKSMSSMVSDTSCTFPSGDGIFWKHWIQTKDGQCGSPLVSTRDGFIVGIHSASNFTNTNNYFTSVPKNFMELLTNQEAQQWVSGWRLNADSVLWGGHKVFMVKPEEPFQPVKEATQL [I15H],0.107,0.141,,0.102,,0.117,0.1,0.116,0.0499,0.129,,,0.108,,,0.0985,,0.0553
MGESLFKGPRDYNPISSSICHLTNEDDGHTTSLYGIGFGPFIITNKHLFRRNNGTLVVQSLHGVFKVKDTTTLQQHLVDGRDMIIIRMPKDFPPFPQKLKFREPQREERICLVTTNFQTKSMSSMVSDTSCTFPSGDGIFWKHWIQTKDGQCGSPLVSTRDGFIVGIHSASNFTNTNNYFTSVPKNFMELLTNQEAQQWVSGWRLNADSVLWGGHKVFMVKPEEPFQPVKEATQL [S26D],0.0837,0.0988,0.0929,0.0865,0.0936,0.104,0.0788,0.0961,0.0882,0.104,,,,,,0.0904,,0.0789
MGESLFKGPRDYNPISSSICHLHNESDGHTTSLYGIGFGPFIITNKHLFRRNNGTLVVQSLHGVFKVKDTTTLQQHLVDGRDMIIIRMPKDFPPFPQKLKFREPQREERICLVTTNFQTKSMSSMVSDTSCTFPSGDGIFWKHWIQTKDGQCGSPLVSTRDGFIVGIHSASNFTNTNNYFTSVPKNFMELLTNQEAQQWVSGWRLNADSVLWGGHKVFMVKPEEPFQPVKEATQL [T23H],0.0725,0.0936,0.0962,,0.0939,0.114,,0.0937,0.0985,,0.0832,0.0819,0.115,0.0849,,0.119,0.083,
MGESLFKGPRDYNPISSSICHLVNESDGHTTSLYGIGFGPFIITNKHLFRRNNGTLVVQSLHGVFKVKDTTTLQQHLVDGRDMIIIRMPKDFPPFPQKLKFREPQREERICLVTTNFQTKSMSSMVSDTSCTFPSGDGIFWKHWIQTKDGQCGSPLVSTRDGFIVGIHSASNFTNTNNYFTSVPKNFMELLTNQEAQQWVSGWRLNADSVLWGGHKVFMVKPEEPFQPVKEATQL [T23V],0.115,0.133,0.066,0.126,0.114,0.122,0.108,0.131,0.0941,0.123,0.102,0.106,,0.115,0.122,0.143,0.0819,0.117
MGESLFKGPRDYNPISSSICHLTNESLGHTTSLYGIGFGPFIITNKHLFRRNNGTLVVQSLHGVFKVKDTTTLQQHLVDGRDMIIIRMPKDFPPFPQKLKFREPQREERICLVTTNFQTKSMSSMVSDTSCTFPSGDGIFWKHWIQTKDGQCGSPLVSTRDGFIVGIHSASNFTNTNNYFTSVPKNFMELLTNQEAQQWVSGWRLNADSVLWGGHKVFMVKPEEPFQPVKEATQL [D27L],0.0888,0.0939,0.0943,0.0982,0.105,0.073,0.0685,0.0883,0.0907,0.122,,0.094,0.118,0.0892,0.125,0.0956,0.0687,
MGESLFKGPRDYNPISSSICHLTNESDFHTTSLYGIGFGPFIITNKHLFRRNNGTLVVQSLHGVFKVKDTTTLQQHLVDGRDMIIIRMPKDFPPFPQKLKFREPQREERICLVTTNFQTKSMSSMVSDTSCTFPSGDGIFWKHWIQTKDGQCGSPLVSTRDGFIVGIHSASNFTNTNNYFTSVPKNFMELLTNQEAQQWVSGWRLNADSVLWGGHKVFMVKPEEPFQPVKEATQL [G28F],0.0785,0.103,,0.0864,0.111,0.0971,0.0799,,0.0699,0.147,0.0938,0.0796,,0.0768,0.0972,0.0973,0.0736,0.0607
MGESLFKGPRDYNNISSSICHLTNESDGHTTSLYGIGFGPFIITNKHLFRRNNGTLVVQSLHGVFKVKDTTTLQQHLVDGRDMIIIRMPKDFPPFPQKLKFREPQREERICLVTTNFQTKSMSSMVSDTSCTFPSGDGIFWKHWIQTKDGQCGSPLVSTRDGFIVGIHSASNFTNTNNYFTSVPKNFMELLTNQEAQQWVSGWRLNADSVLWGGHKVFMVKPEEPFQPVKEATQL [P14N],0.108,,0.0742,,0.0811,0.0961,,,0.0843,,,0.0828,,0.102,0.0955,0.0683,,0.0851
MGESLFKGPRDYNPISSSICHLTNLSDGHTTSLYGIGFGPFIITNKHLFRRNNGTLVVQSLHGVFKVKDTTTLQQHLVDGRDMIIIRMPKDFPPFPQKLKFREPQREERICLVTTNFQTKSMSSMVSDTSCTFPSGDGIFWKHWIQTKDGQCGSPLVSTRDGFIVGIHSASNFTNTNNYFTSVPKNFMELLTNQEAQQWVSGWRLNADSVLWGGHKVFMVKPEEPFQPVKEATQL [E25L],0.132,0.126,0.0968,0.114,0.0992,0.116,0.0994,0.132,0.0921,,,0.0396,0.0858,0.0878,0.116,0.114,0.1,0.101
MGESLFKGPRDYNPISSSICHLTNDSDGHTTSLYGIGFGPFIITNKHLFRRNNGTLVVQSLHGVFKVKDTTTLQQHLVDGRDMIIIRMPKDFPPFPQKLKFREPQREERICLVTTNFQTKSMSSMVSDTSCTFPSGDGIFWKHWIQTKDGQCGSPLVSTRDGFIVGIHSASNFTNTNNYFTSVPKNFMELLTNQEAQQWVSGWRLNADSVLWGGHKVFMVKPEEPFQPVKEATQL [E25D],0.0958,,0.107,0.105,,0.145,0.115,0.0646,0.0966,,0.101,0.0936,,0.0994,0.0997,0.108,0.1,0.0955
MGESLFKGPRDYNPISSSICHLTNVSDGHTTSLYGIGFGPFIITNKHLFRRNNGTLVVQSLHGVFKVKDTTTLQQHLVDGRDMIIIRMPKDFPPFPQKLKFREPQREERICLVTTNFQTKSMSSMVSDTSCTFPSGDGIFWKHWIQTKDGQCGSPLVSTRDGFIVGIHSASNFTNTNNYFTSVPKNFMELLTNQEAQQWVSGWRLNADSVLWGGHKVFMVKPEEPFQPVKEATQL [E25V],0.107,,0.0881,0.101,0.122,0.0929,0.104,,0.084,0.129,0.116,0.0744,0.0719,,,0.11,0.105,
MGESLFKGPRDYNPISSSNCHLTNESDGHTTSLYGIGFGPFIITNKHLFRRNNGTLVVQSLHGVFKVKDTTTLQQHLVDGRDMIIIRMPKDFPPFPQKLKFREPQREERICLVTTNFQTKSMSSMVSDTSCTFPSGDGIFWKHWIQTKDGQCGSPLVSTRDGFIVGIHSASNFTNTNNYFTSVPKNFMELLTNQEAQQWVSGWRLNADSVLWGGHKVFMVKPEEPFQPVKEATQL [I19N],0.0959,0.0701,0.0739,0.0636,0.076,0.087,0.118,0.0711,0.0701,0.0631,,0.0639,0.0867,,,0.08,0.0726,0.0764
MGESLFKGPRDYNPISSSMCHLTNESDGHTTSLYGIGFGPFIITNKHLFRRNNGTLVVQSLHGVFKVKDTTTLQQHLVDGRDMIIIRMPKDFPPFPQKLKFREPQREERICLVTTNFQTKSMSSMVSDTSCTFPSGDGIFWKHWIQTKDGQCGSPLVSTRDGFIVGIHSASNFTNTNNYFTSVPKNFMELLTNQEAQQWVSGWRLNADSVLWGGHKVFMVKPEEPFQPVKEATQL [I19M],0.132,0.116,0.0914,0.111,0.12,0.115,0.0738,0.08,0.0988,0.123,,0.0926,,0.091,0.121,0.114,0.0613,0.108

# From the supplement of paper PMC12217912
